Among the data in the RNAGym collection of RNA variant scans (doi:10.7554/elife.90254) are self-cleavage values, retold here.

The source gives no read counts; variants with many changes may rest on few reads.

B1: LINE1-mini (parent)
chain: GGCAGAGCUCAACACAGCGUGGCAAAGUGGCUGUGGCUAGACUGCC

Variants of B1 are the subject of the series. Description: self-cleavage, relative activity (ratio to wild type); higher = more cleavage; in vitro, sequencing; the parent is a self-cleaving ribozyme.
As to C8U A24U G30C, the self-cleavage came out at 0.09. The result for C8G C10A G44C reads 0; that for U9A A11U A12U U43A, 0.02; that for C8U C10G G29U G44U, 0.03.

Take C8U A12U G21A C45A: the self-cleavage worked out at 0.02. C8U C15U A24C: the self-cleavage came out at 0.63. The result for C8U C31A G36U G44C reads 0.04; that for C8G G19A A26G U28A U43A G44U, 0.01; that for C8G U32A G33U A39U G44U, 0.06. The result for C8U U9A C10A C31A reads 0.01; that for C8U C18G C23U C46G, 0.07; that for C8G U28G G29U, 0.07. The result for C8U A12C C42G reads 0.

Consider C8G U9G A11U A41G, for which the self-cleavage worked out at 0.01.

Turning to C8U G33A C37A, the self-cleavage was 0.04.

As for U9A A11C G35U G36A A39G, the self-cleavage is 0.

C8U A16U C23A G40U: the self-cleavage amounted to 0.03. The result for C8U A12G C42G C45A reads 0.05; that for C8G A14U C46U, 0.05. With C8G A26C G33A A41U, the self-cleavage came to 0.17. As for C8G C13G A14G G40A A41C G44C, the self-cleavage stood at 0.01.

Regarding C8U U20A C23A C42U, the self-cleavage was found to be 0.06. For the variant U9A A12G A26G, the self-cleavage came out at 0.03.

For C8G C13U C15U G21A, the self-cleavage came to 0.07.

Regarding C8U C37A A39C G40U, the self-cleavage is 0.05.

For the variant C8U A12C C15A G17A C18A G30C, the self-cleavage is 0.01. The result for C8G A12G G17C U43G C46A reads 0.01; that for C8U G22A G44A, 0.03. The result for C8U G21U U28G C31U G35U reads 0.08; that for C8G C10A G27A G33U U34G G36C, 0.01; that for C8G G19C U20A G29C C31G G33A U34A C37A G40C, 0.

For the variant C8G G30C C31G, the self-cleavage was 0.04.

Turning to C8G A24C U28C G35U, the self-cleavage was 0.05. With C8U A14C C18G G33C U38A A39C, the self-cleavage came out at 0.09. For the variant C8U G17C A41U, the self-cleavage was found to be 0.13.

C8G U9A C23U: the self-cleavage was 0.11. For C8G C10G U38A A39G, the self-cleavage is 0.

C8G U28A U34A: the self-cleavage was found to be 0.05. The result for C8U C31A A41G reads 0.06; that for C8G U34C G40A G44C, 0.12; that for C8U U32G C42U, 0.04. On to C8U G27C G35U, for which the self-cleavage was 0.13.

In the case of C8U A16G U28C, the self-cleavage stood at 0.11.

On to C8G C23A A25G, for which the self-cleavage worked out at 0.06. Regarding C8U U32G U38G A41G, the self-cleavage amounted to 0.02. As for C8G A14U C37U, the figure is 0.02; as for C8G C15A C18G G40C A41C, 0.01; as for C8G A12U G35U, 0.11. The result for C8U G21C G22A C31U reads 0.23; that for C8U C13U G19A A26G G27U G30C C42A G44A, 0.26. The result for C8U G33C G40U reads 0.07; that for U9A A11U U20C C23G C45A, 0.02; that for C8G G33U C42U, 0.02. Regarding C8U U28G U32C G35U C37G U38A, the self-cleavage was 0.06. The result for U9A A12G G30C U34G G36A C37A reads 0.02; that for C8G C13A G19C C23A, 0.04; that for C8G A12U U34C G40A A41C, 0.02.

With U9A A12C A16C C18G G21A C23A A24C G29A C31U, the self-cleavage came to 0.01. For the variant C8G A12U C18U, the self-cleavage turned out to be 0.01.

C8U A11U C13U C15A A26G: the self-cleavage was 0.05.

Regarding C8G C15U A16U G21U, the self-cleavage was 0. The result for U9A A12G A26G G29A reads 0.03; that for C8G G27A G30A U34A, 0.03.

For C8U A16U U32A, the self-cleavage was 0.29.

Take C8G G27U A41U C46G: the self-cleavage is 0.06. As for C8U A12C G19U G33A U38G, the figure is 0.01. The result for C8U A11C G22U A26U U38A reads 0.01; that for C8G A39C U43C, 0.04. The result for C8G A12G G17A G27U A39G reads 0.01; that for C8G C15G G27C C37U, 0.03. As for C8U A41C C42A, the self-cleavage amounted to 0.01. As to C8U G29C G30A, the self-cleavage stood at 0. The result for C8U G33U G36U C37U reads 0.03; that for C8U G40C A41G U43C, 0.13; that for C8U C13G U20C C23A, 0.07. As for C8U A12G G40U, the self-cleavage came out at 0.32. As for C8U A24G C46A, the figure is 0.05; as for C8U A24G C46G, 0.02; as for C8U A16G G40C U43G, 0.02. As for C8G A14C G17A G19C C23G, the figure is 0.03; as for C8U C15A C18U, 0.04. As for C8G C13U C31G, the figure is 0.03; as for C8U G27U G33U A39U, 0.02; as for C8G A16U G40A C42U C45U, 0.01.

As to C8U C10A C13A C18U C45A C46U, the self-cleavage turned out to be 0.02. In the case of C8G A24C U28C, the self-cleavage came out at 0.05.

As to C8G C18A G29U, the self-cleavage worked out at 0.11. With C8G C18A C46A, the self-cleavage amounted to 0.04.

As to C8U C15G A16U, the self-cleavage was 0.09. C8G C10A A26U U28C: the self-cleavage turned out to be 0.01.

As to C8U A11G G30U, the self-cleavage is 0.01. Regarding C8G U43A C45G, the self-cleavage was 0.07.

Turning to C8G A16G G33A C46U, the self-cleavage amounted to 0.03. The result for C8G G36C A39G C42U reads 0.04; that for C8U A24U U28C G30U U38A, 0.04.

In the case of U9A A12C G30U C31A C46U, the self-cleavage is 0.01.

Turning to C8U G17C G29A C31G A41G, the self-cleavage was 0.04.

C8U G30U G36A A41G: the self-cleavage was found to be 0.03. As for C8G A26C G30A G36A, the figure is 0.04. For C8U G21A C42U, the self-cleavage is 0.6. For the variant C8G G22C C31U, the self-cleavage came to 0.06. As for C8U C15A G27C, the figure is 0.06. For the variant C8G U38A A39U, the self-cleavage stood at 0.03. For C8U G19C G30U G36U, the self-cleavage was 0.09. For the variant C8G U9C G21A, the self-cleavage turned out to be 0.05. The result for C8G C13A A14G C15G G17A reads 0.04; that for C8U G17C A26C, 0.28; that for C8G G21C C31G, 0.02.

Consider C8U A16C G21C A41U, for which the self-cleavage was 0.09. On to C8U A16C G27A, for which the self-cleavage turned out to be 0.1. On to C8G C37A U38G, for which the self-cleavage came out at 0.02. The result for C8U G21U G22C A25C G30C reads 0.16. Take C8G C15U C18U G21C G30C C37G: the self-cleavage turned out to be 0.08. Turning to C8U A14C C45U, the self-cleavage is 0.08.

Consider C8G G22A U32A, for which the self-cleavage was 0.01. Consider C8G C15G U28C G30A U32G G33U G35A, for which the self-cleavage amounted to 0.07. As for C8G G27U U28A, the self-cleavage came out at 0.08. As for C8U A26C C45U, the figure is 2.32; as for C8U G17C C31U, 0.13. As for C8U C37G G40U, the figure is 0.04. C8U U9A C15G C31U C37U U43C: the self-cleavage is 0.12. The result for C8G A16U U28A reads 0.08; that for C8G C15A U38A A41G, 0.02. The result for C8G C10U C18U reads 0.02; that for C8G C31A C37U, 0.1. The result for C8U C10A C18U U20A C31U A39U C46U reads 0.04.

For C8U C13G G44C, the self-cleavage is 0.1. As for C8U C13A A16G G30U U34A, the figure is 0.04; as for C8G U9G G40C, 0.01. As for C8U A11U G33C, the figure is 0; as for C8G G44A C46A, 0.01. As for U9A A11G G17A U20C C31G, the figure is 0; as for U9A A12C C13A G29U, 0.02.

On to C8G G21A G27U G44A, for which the self-cleavage is 0.04. The result for C8U G22A G29A G36C G40A C46G reads 0.12; that for C8U C13G G17C G44A, 0.07. As for C8U C10A A24U A26G, the figure is 0.02; as for C8G U9C C23U C31U, 0. U9A A11U G22A: the self-cleavage came out at 0. Turning to C8U A14C A24U, the self-cleavage is 0.42.

Take C8G A25G U28A: the self-cleavage came out at 0.17. With C8G U32A G40A, the self-cleavage amounted to 0.02. Take C8U U9C C46G: the self-cleavage stood at 0.01.

C8U C23G A26C: the self-cleavage stood at 0.1.

C8U C10A G30C: the self-cleavage came out at 0.02. C8G C18G G27A C37G A41G: the self-cleavage is 0.01. The result for U9A A12U C18A reads 0.08; that for C8U G17A C45A C46A, 0.13; that for C8U U9A C13U C37U, 0.13. Consider C8G A24G C42G, for which the self-cleavage was determined as 0.03. Take C8G G27C U28A: the self-cleavage stood at 0.02. For the variant C8U C31A C37A A41G, the self-cleavage worked out at 0.02. The result for C8G C18U U38C reads 0.06. As for U9A A12C A24G A25C G35A G40A, the figure is 0.04; as for C8G U9G G27U U38G C42A, 0.04. The result for C8U C45A C46U reads 0.1. On to C8G A25U U32G, for which the self-cleavage amounted to 0.04.

Regarding C8U C13U G22U U34C, the self-cleavage is 0.11. The result for C8U C13U U28G G44C reads 0.07. As for C8G G22C C37G U43C, the figure is 0.01; as for C8G U9G C18A U43C, 0.04. As for C8U A26U G33A C46U, the figure is 0.12; as for C8G G29U A39C G40U, 0.05; as for C8U A16G G22U, 0.51. With C8U G30U U43G, the self-cleavage is 0.11. The result for C8U C37G A39C reads 0.15; that for C8U C18A A26C, 0.2.
